# In all, about 2,900 compounds were measured (“IRF Lucia reporter activity, fold change vs agonist alone”: median about 0.9, highest 2% from about 2.8 on). This is one part of the list.
# Columns and labels:
# RAW-Dual [1] = assay: IRF Lucia reporter activity, fold change vs agonist alone; cytotoxicity flag (confluency mask): cytotoxic (confluency <70% of control); higher = enhanced IRF activity
# In short: (§1)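 Reporter activity is given as fold change relative to agonist-alone wells. To measure it, 50 nL of library stock was pin-tooled onto RAW-Dual macrophages (50,000 cells/well, DMEM, 384-well plates), a PRR agonist followed 1 h later, and cells stayed at 37 °C, 5% CO2. Twenty hours on, supernatant was assayed for IRF (QuantiLuc luminescence) and NF-κB (QuantiBlue, 620 nm absorbance), and wells under 70% of agonist-control IncuCyte confluency in both mask sets were marked cytotoxic.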
# RAW-Dual [2] = assay: IRF Lucia reporter activity, fold change vs agonist alone; higher = enhanced IRF activity; settings: agonist: MPLA (TLR4) […]
# In short: as §1
# RAW-Dual [3] = assay: IRF Lucia reporter activity, fold change vs agonist alone; cytotoxicity flag (confluency mask): not cytotoxic; higher = enhanced IRF activity
# In short: as §1
# [4] = agonist: 3'3'-cGAMP (STING) 10 ug/mL
# [5] = library stock concentration (final ~1000-fold dilution): 10 mM, cytotoxicity flag (confluency mask): not cytotoxic
structure (smiles),measurement,setting,value
COc1cc2c(NC3CCN(C(C)C)CC3)nc(C3CCCCC3)nc2cc1OCCCN1CCCC1 (library stock concentration (final ~1000-fold dilution): 10 mM),IRF Lucia reporter activity,RAW-Dual [1]; [4],0.154
same,IRF Lucia reporter activity,RAW-Dual [1]; agonist: LPS (TLR4) 0.1 ug/mL,0.0189
O=C(Nc1ccccc1)Nc1ccc(-c2ccc(C(=O)C3CCCC3C(=O)O)cc2)cc1 (stereo unspecified),IRF Lucia reporter activity,RAW-Dual [2]; [5],1.22
O=C(Nc1ccccc1)Nc1ccc(-c2ccc(C(=O)C3CCCC3C(=O)O)cc2)cc1 (stereo unspecified) (library stock concentration (final ~1000-fold dilution): 10 mM),IRF Lucia reporter activity,RAW-Dual [3]; [4],1.15
same,IRF Lucia reporter activity,RAW-Dual [3]; agonist: LPS (TLR4) 0.1 ug/mL,1.07
O=c1[nH]nc2c3c(cccc13)N=C(CN1Cc3ccccc3C1)N2 (library stock concentration (final ~1000-fold dilution): 10 mM),IRF Lucia reporter activity,RAW-Dual [3]; [4],0.653
same,IRF Lucia reporter activity,RAW-Dual [3]; agonist: LPS (TLR4) 0.1 ug/mL,0.666
C#Cc1cccc(Nc2ncnc3cc(OC)c(OCCCCCCC(=O)NO)cc23)c1,IRF Lucia reporter activity,"RAW-Dual [2]; library stock concentration (final ~1000-fold dilution): 10 mM, cytotoxicity flag (confluency mask): cytotoxic (confluency <70% of control)",0.26
C#Cc1cccc(Nc2ncnc3cc(OC)c(OCCCCCCC(=O)NO)cc23)c1 (library stock concentration (final ~1000-fold dilution): 10 mM),IRF Lucia reporter activity,RAW-Dual [1]; [4],0.117
same,IRF Lucia reporter activity,RAW-Dual [1]; agonist: LPS (TLR4) 0.1 ug/mL,0.392
O=S(=O)(c1ccc2c(c1)C(=NO)c1cc(S(=O)(=O)N3CCCCC3)ccc1-2)N1CCCCC1 (library stock concentration (final ~1000-fold dilution): 10 mM),IRF Lucia reporter activity,RAW-Dual [3]; [4],0.405
same,IRF Lucia reporter activity,RAW-Dual [3]; agonist: LPS (TLR4) 0.1 ug/mL,0.478
CS(=O)(=O)n1cc2c(n1)CN(C1COC(c3cc(F)ccc3F)C(N)C1)C2 (stereo unspecified) (library stock concentration (final ~1000-fold dilution): 10 mM),IRF Lucia reporter activity,RAW-Dual [3]; [4],0.908
same,IRF Lucia reporter activity,RAW-Dual [3]; agonist: LPS (TLR4) 0.1 ug/mL,1.22
CCn1c2ccccc2c2cc(-n3nncc3-c3ccccc3)ccc21 (library stock concentration (final ~1000-fold dilution): 10 mM),IRF Lucia reporter activity,RAW-Dual [3]; [4],0.0459
same,IRF Lucia reporter activity,RAW-Dual [3]; agonist: LPS (TLR4) 0.1 ug/mL,2.19
COc1cccc2c1c(O)c(C(=O)N(C)c1ccc(C(F)(F)F)cc1)c(=O)n2C (library stock concentration (final ~1000-fold dilution): 10 mM),IRF Lucia reporter activity,RAW-Dual [3]; [4],1.25
same,IRF Lucia reporter activity,RAW-Dual [3]; agonist: LPS (TLR4) 0.1 ug/mL,1.07
O=C(Nc1cccc(C(F)(F)F)c1)c1cccc2cc(Oc3cc(CO)ncn3)ccc12 (library stock concentration (final ~1000-fold dilution): 10 mM),IRF Lucia reporter activity,RAW-Dual [3]; [4],0.798
same,IRF Lucia reporter activity,RAW-Dual [3]; agonist: LPS (TLR4) 0.1 ug/mL,1.03
CN(CC(=O)N(Cc1ccc(C2CCCCC2)cc1)c1ccc(C(=O)O)c(O)c1)S(=O)(=O)c1c(F)c(F)c(F)c(F)c1F (library stock concentration (final ~1000-fold dilution): 10 mM),IRF Lucia reporter activity,RAW-Dual [3]; [4],0.0291
same,IRF Lucia reporter activity,RAW-Dual [3]; agonist: LPS (TLR4) 0.1 ug/mL,0.255
NC(N)=NCCCC(N)C(=O)NC(CCCN=C(N)N)C(=O)N1CCCC1C(=O)N1CC(O)CC1C(=O)NCC(=O)NC(Cc1cccs1)C(=O)NC(CO)C(=O)N1Cc2ccccc2CC1C(=O)N1C(C(=O)NC(CCCN=C(N)N)C(=O)O)CC2CCCCC21 (stereo unspecified) (library stock concentration (final ~1000-fold dilution): 2 mM water),IRF Lucia reporter activity,RAW-Dual [3]; [4],0.973
same,IRF Lucia reporter activity,RAW-Dual [3]; agonist: LPS (TLR4) 0.1 ug/mL,0.782
NC(N)=NCCCC(N)C(=O)NC(CCCN=C(N)N)C(=O)N1CCCC1C(=O)N1CC(O)CC1C(=O)NCC(=O)NC(Cc1cccs1)C(=O)NC(CO)C(=O)N1Cc2ccccc2CC1C(=O)N1C(C(=O)NC(CCCN=C(N)N)C(=O)O)CC2CCCCC21 (stereo unspecified),IRF Lucia reporter activity,"RAW-Dual [2]; library stock concentration (final ~1000-fold dilution): 2 mM water, cytotoxicity flag (confluency mask): not cytotoxic",1.25
CN(C)CCN(Cc1ccc(Cl)cc1)c1ccccn1.Cl,IRF Lucia reporter activity,RAW-Dual [2]; [5],1.02
CN(C)CCN(Cc1ccc(Cl)cc1)c1ccccn1.Cl (library stock concentration (final ~1000-fold dilution): 10 mM),IRF Lucia reporter activity,RAW-Dual [3]; [4],0.714
same,IRF Lucia reporter activity,RAW-Dual [3]; agonist: LPS (TLR4) 0.1 ug/mL,0.968
CC(C)=CCc1c(-c2ccc(O)cc2O)oc2c3c(cc(O)c2c1=O)OC(C)(C)C=C3 (library stock concentration (final ~1000-fold dilution): 10 mM),IRF Lucia reporter activity,RAW-Dual [1]; [4],0.0354
same,IRF Lucia reporter activity,RAW-Dual [1]; agonist: LPS (TLR4) 0.1 ug/mL,0.23
c1ccc(-c2n[nH]cc2-c2ccnc3ccccc23)nc1 (library stock concentration (final ~1000-fold dilution): 2 mM),IRF Lucia reporter activity,RAW-Dual [3]; [4],0.776
same,IRF Lucia reporter activity,RAW-Dual [3]; agonist: LPS (TLR4) 0.1 ug/mL,0.718
c1ccc(-c2n[nH]cc2-c2ccnc3ccccc23)nc1,IRF Lucia reporter activity,"RAW-Dual [2]; library stock concentration (final ~1000-fold dilution): 2 mM, cytotoxicity flag (confluency mask): not cytotoxic",1.19
O=C(Nc1ccc(O)c(C(=O)O)c1)c1cccc(NC(=O)c2ccco2)c1 (library stock concentration (final ~1000-fold dilution): 10 mM),IRF Lucia reporter activity,RAW-Dual [3]; [4],0.768
same,IRF Lucia reporter activity,RAW-Dual [3]; agonist: LPS (TLR4) 0.1 ug/mL,0.874
COc1cc(Br)c(Nc2nc(-c3c(C)nc4ncccn34)cs2)c(Br)c1 (library stock concentration (final ~1000-fold dilution): 10 mM),IRF Lucia reporter activity,RAW-Dual [3]; [4],0.184
same,IRF Lucia reporter activity,RAW-Dual [3]; agonist: LPS (TLR4) 0.1 ug/mL,1.89
COc1cc(Br)c(Nc2nc(-c3c(C)nc4ncccn34)cs2)c(Br)c1,IRF Lucia reporter activity,RAW-Dual [2]; [5],1.32
CC(C)Oc1ccc(-c2nn(C(C)c3oc4ccc(F)cc4c(=O)c3-c3cccc(F)c3)c3ncnc(N)c23)cc1F (stereo unspecified) (library stock concentration (final ~1000-fold dilution): 10 mM),IRF Lucia reporter activity,RAW-Dual [3]; [4],0.264
same,IRF Lucia reporter activity,RAW-Dual [3]; agonist: LPS (TLR4) 0.1 ug/mL,1.24
Cl.NCc1c[nH]c(=S)n1C1CCc2c(F)cc(F)cc2C1 (stereo unspecified),IRF Lucia reporter activity,RAW-Dual [2]; [5],0.987

# From the supplement of paper PMC10037445
